Assay results reported in US20140187491A1 (Bayer, published 2014).

T1: human LGR7/RXFP1 receptor (human, UniProt Q9HBX9 1-757)
T1 sequence (looked up): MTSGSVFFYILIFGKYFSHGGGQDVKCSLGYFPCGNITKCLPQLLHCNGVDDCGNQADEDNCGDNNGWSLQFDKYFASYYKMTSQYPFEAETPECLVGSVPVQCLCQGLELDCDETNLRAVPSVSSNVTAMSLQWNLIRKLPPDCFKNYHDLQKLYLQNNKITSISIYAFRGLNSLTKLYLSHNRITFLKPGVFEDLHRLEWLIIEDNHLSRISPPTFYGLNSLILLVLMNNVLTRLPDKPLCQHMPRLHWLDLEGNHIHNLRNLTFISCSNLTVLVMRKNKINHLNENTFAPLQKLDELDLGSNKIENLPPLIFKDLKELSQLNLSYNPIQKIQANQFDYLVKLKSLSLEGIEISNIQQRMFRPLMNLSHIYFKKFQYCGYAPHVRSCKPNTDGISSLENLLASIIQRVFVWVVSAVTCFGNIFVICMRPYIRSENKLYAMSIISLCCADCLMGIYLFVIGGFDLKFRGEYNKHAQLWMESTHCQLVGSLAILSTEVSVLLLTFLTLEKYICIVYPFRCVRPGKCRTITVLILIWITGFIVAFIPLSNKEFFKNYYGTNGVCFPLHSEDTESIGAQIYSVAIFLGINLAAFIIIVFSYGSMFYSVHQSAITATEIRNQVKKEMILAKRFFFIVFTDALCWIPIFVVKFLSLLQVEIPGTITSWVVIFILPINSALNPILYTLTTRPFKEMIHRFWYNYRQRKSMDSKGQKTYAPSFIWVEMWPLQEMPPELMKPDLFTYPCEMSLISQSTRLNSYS

B1: scR-Fc 15 (Fc fusion)
chain: QLYSALANKCCHVGCTKRSLARFCGGGSGGGSGSWMEEVIKLCGRELVRAQIAICGMSTWSGSGSGS[letters of human IgG1 Fc omitted]
B2: scR-Fc 3 (Fc fusion)
chain: QLYSALANKCCHVGCTKRSLARFCGGGSGGGSGSWMEEVIKLCGRELVRAQIAICGMSTWSGGSGGSP[letters of human IgG1 Fc omitted]
B3: scR-Fc 1 (Fc fusion)
chain: EQKLISEEDLQLYSALANKCCHVGCTKRSLARFCGGGSGGGSGSWMEEVIKLCGRELVRAQIAICGMSTWSIEGRMD[letters of human IgG1 Fc with S219A (EU numbers) omitted]
B4: scR-Fc 6 (Fc fusion)
chain: [letters of human IgG1 Fc omitted]GGSGGSPQLYSALANKCCHVGCTKRSLARFCGGGSGGGSGSWMEEVIKLCGRELVRAQIAICGMSTWS
B5: scR-Fc 7 (Fc fusion)
chain: [letters of human IgG1 Fc omitted]GGSGGSGGSPQLYSALANKCCHVGCTKRSLARFCGGGSGGGSGSWMEEVIKLCGRELVRAQIAICGMSTWS
B6: scR-Fc 4 (Fc fusion)
chain: QLYSALANKCCHVGCTKRSLARFCGGGSGGGSGSWMEEVIKLCGRELVRAQIAICGMSTWSGGSGGSGGSP[letters of human IgG1 Fc omitted]
B7: scR-Fc 2 (Fc fusion)
chain: QLYSALANKCCHVGCTKRSLARFCGGGSGGGSGSWMEEVIKLCGRELVRAQIAICGMSTWSGGSP[letters of human IgG1 Fc omitted]
B8: scR-Fc 14 (Fc fusion)
chain: QLYSALANKCCHVGCTKRSLARFCGGGSGGGSGSWMEEVIKLCGRELVRAQIAICGMSTWS[letters of human IgG1 Fc omitted]
B9: scR-Fc 5 (Fc fusion)
chain: [letters of human IgG1 Fc omitted]GGSPQLYSALANKCCHVGCTKRSLARFCGGGSGGGSGSWMEEVIKLCGRELVRAQIAICGMSTWS
B10: scR-Fc 16 (Fc fusion)
chain: QLYSALANKCCHVGCTKRSLARFCGGGSGGGSGSWMEEVIKLCGRELVRAQIAICGMSTWSGSGSGS[letters of human IgG1 Fc with C226A C229A (EU numbers) omitted]

Molecular target: T1, human LGR7/RXFP1 receptor
Test: cell-based or functional assay

| Binder | EC50 (M), CRE-luciferase reporter in CHO-CRE-LGR7 cells [M] |
| --- | --- |
| B1 | 3.4e-09 |
| B2 | 2.4e-09 |
| B3 | 1.3e-08 |
| B4 | 4.2e-10 |
| B5 | 7.4e-10 |
| B6 | 3.1e-09 |
| B7 | 3.3e-09 |
| B8 | 3.9e-07 |
| B9 | 1.3e-10 |
| B10 | 2.5e-09 |
